Reference: the supplement of paper PMC12230231

system: SIVsab (simian immunodeficiency virus of sabaeus monkeys), single-cycle GFP reporter, in CRFK cells; test: enrichment among uninfected cells over input (fold); higher = stronger restriction; details: library: human / rhesus combinations
Protocol: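 Pools of CRFK cells expressing variants of the TRIM5α v1 loop were challenged with the single-cycle reporter, sorted by GFP and sequenced; mean of two replicates.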

Q: Which enrichment does the source give for “MASGILVNVKEEVTCPICLELLTQPLSLDCGHSFCQACLTANHKKSMLDKGESSCPVCRISYQPENIRPNRHVANIVEKLREVKLSPEGQKVDHCARHGEKLLLFCQEDGKVICWLCERSQEHRGHHTFLTEEVAREYQVKLQAALEMLRQKQQEAEELEADIREEKASWKTQIQYDKTNVLADFEQLRDILDWEESNELQNLEKEEEDILKSLTNSETEMVQQTQSLRELISDLEHRLQGSVMELLQGVDGVIKRTENVTLKKPETFPKNQRRVFRAPDLKGMLEVFRELTDVRRYWVDVTVAPNNISCAVISEDKRQVSSPKPQIIYQARGTLYTFPTFVNFNYCTGILGSQSITSGKHYWEVDVSKKTAWILGVCAGFQPDAMCNIEKNENYQPKYGYWVIGLEEGVKCSAFQDSSFHTPSVPFIVPLSVIICPDRVGVFLDYEACTVSFFNITNHGFLIYKFSHCSFSQPVFPYLNPRKCGVPMTLCSPSS [human TRIM5α, 330-340 = QARGTLYTFPTFV]” here?
A: 0.0725 ± 0.1

Q: How did the enrichment turn out when “MASGILVNVKEEVTCPICLELLTQPLSLDCGHSFCQACLTANHKKSMLDKGESSCPVCRISYQPENIRPNRHVANIVEKLREVKLSPEGQKVDHCARHGEKLLLFCQEDGKVICWLCERSQEHRGHHTFLTEEVAREYQVKLQAALEMLRQKQQEAEELEADIREEKASWKTQIQYDKTNVLADFEQLRDILDWEESNELQNLEKEEEDILKSLTNSETEMVQQTQSLRELISDLEHRLQGSVMELLQGVDGVIKRTENVTLKKPETFPKNQRRVFRAPDLKGMLEVFRELTDVRRYWVDVTVAPNNISCAVISEDKRQVSSPKPQIIYGAPGTLFTFPSLTNFNYCTGILGSQSITSGKHYWEVDVSKKTAWILGVCAGFQPDAMCNIEKNENYQPKYGYWVIGLEEGVKCSAFQDSSFHTPSVPFIVPLSVIICPDRVGVFLDYEACTVSFFNITNHGFLIYKFSHCSFSQPVFPYLNPRKCGVPMTLCSPSS [human TRIM5α, 330-340 = GAPGTLFTFPSLT]” was run?
A: 16.3 ± 3

Q: For “MASGILVNVKEEVTCPICLELLTQPLSLDCGHSFCQACLTANHKKSMLDKGESSCPVCRISYQPENIRPNRHVANIVEKLREVKLSPEGQKVDHCARHGEKLLLFCQEDGKVICWLCERSQEHRGHHTFLTEEVAREYQVKLQAALEMLRQKQQEAEELEADIREEKASWKTQIQYDKTNVLADFEQLRDILDWEESNELQNLEKEEEDILKSLTNSETEMVQQTQSLRELISDLEHRLQGSVMELLQGVDGVIKRTENVTLKKPETFPKNQRRVFRAPDLKGMLEVFRELTDVRRYWVDVTVAPNNISCAVISEDKRQVSSPKPQIIYQARGTRYPSLVNFNYCTGILGSQSITSGKHYWEVDVSKKTAWILGVCAGFQPDAMCNIEKNENYQPKYGYWVIGLEEGVKCSAFQDSSFHTPSVPFIVPLSVIICPDRVGVFLDYEACTVSFFNITNHGFLIYKFSHCSFSQPVFPYLNPRKCGVPMTLCSPSS [human TRIM5α, 330-340 = QARGTRYPSLV]”, which enrichment is on record?
A: 0.2309 ± 0.0016

Q: “MASGILVNVKEEVTCPICLELLTQPLSLDCGHSFCQACLTANHKKSMLDKGESSCPVCRISYQPENIRPNRHVANIVEKLREVKLSPEGQKVDHCARHGEKLLLFCQEDGKVICWLCERSQEHRGHHTFLTEEVAREYQVKLQAALEMLRQKQQEAEELEADIREEKASWKTQIQYDKTNVLADFEQLRDILDWEESNELQNLEKEEEDILKSLTNSETEMVQQTQSLRELISDLEHRLQGSVMELLQGVDGVIKRTENVTLKKPETFPKNQRRVFRAPDLKGMLEVFRELTDVRRYWVDVTVAPNNISCAVISEDKRQVSSPKPQIIYQAPGTLYTFPSFVNFNYCTGILGSQSITSGKHYWEVDVSKKTAWILGVCAGFQPDAMCNIEKNENYQPKYGYWVIGLEEGVKCSAFQDSSFHTPSVPFIVPLSVIICPDRVGVFLDYEACTVSFFNITNHGFLIYKFSHCSFSQPVFPYLNPRKCGVPMTLCSPSS [human TRIM5α, 330-340 = QAPGTLYTFPSFV]” was tested. Which enrichment did it give?
A: 0.824 ± 0.4

Q: How did the enrichment turn out when “MASGILVNVKEEVTCPICLELLTQPLSLDCGHSFCQACLTANHKKSMLDKGESSCPVCRISYQPENIRPNRHVANIVEKLREVKLSPEGQKVDHCARHGEKLLLFCQEDGKVICWLCERSQEHRGHHTFLTEEVAREYQVKLQAALEMLRQKQQEAEELEADIREEKASWKTQIQYDKTNVLADFEQLRDILDWEESNELQNLEKEEEDILKSLTNSETEMVQQTQSLRELISDLEHRLQGSVMELLQGVDGVIKRTENVTLKKPETFPKNQRRVFRAPDLKGMLEVFRELTDVRRYWVDVTVAPNNISCAVISEDKRQVSSPKPQIIYGAPGTRYTFPTFVNFNYCTGILGSQSITSGKHYWEVDVSKKTAWILGVCAGFQPDAMCNIEKNENYQPKYGYWVIGLEEGVKCSAFQDSSFHTPSVPFIVPLSVIICPDRVGVFLDYEACTVSFFNITNHGFLIYKFSHCSFSQPVFPYLNPRKCGVPMTLCSPSS [human TRIM5α, 330-340 = GAPGTRYTFPTFV]” was run?
A: 0.296 ± 0.04

Q: How did the enrichment turn out when “MASGILVNVKEEVTCPICLELLTQPLSLDCGHSFCQACLTANHKKSMLDKGESSCPVCRISYQPENIRPNRHVANIVEKLREVKLSPEGQKVDHCARHGEKLLLFCQEDGKVICWLCERSQEHRGHHTFLTEEVAREYQVKLQAALEMLRQKQQEAEELEADIREEKASWKTQIQYDKTNVLADFEQLRDILDWEESNELQNLEKEEEDILKSLTNSETEMVQQTQSLRELISDLEHRLQGSVMELLQGVDGVIKRTENVTLKKPETFPKNQRRVFRAPDLKGMLEVFRELTDVRRYWVDVTVAPNNISCAVISEDKRQVSSPKPQIIYQAPGTLFTFQTLVNFNYCTGILGSQSITSGKHYWEVDVSKKTAWILGVCAGFQPDAMCNIEKNENYQPKYGYWVIGLEEGVKCSAFQDSSFHTPSVPFIVPLSVIICPDRVGVFLDYEACTVSFFNITNHGFLIYKFSHCSFSQPVFPYLNPRKCGVPMTLCSPSS [human TRIM5α, 330-340 = QAPGTLFTFQTLV]” was run?
A: 0.114 ± 0.12

Q: For “MASGILVNVKEEVTCPICLELLTQPLSLDCGHSFCQACLTANHKKSMLDKGESSCPVCRISYQPENIRPNRHVANIVEKLREVKLSPEGQKVDHCARHGEKLLLFCQEDGKVICWLCERSQEHRGHHTFLTEEVAREYQVKLQAALEMLRQKQQEAEELEADIREEKASWKTQIQYDKTNVLADFEQLRDILDWEESNELQNLEKEEEDILKSLTNSETEMVQQTQSLRELISDLEHRLQGSVMELLQGVDGVIKRTENVTLKKPETFPKNQRRVFRAPDLKGMLEVFRELTDVRRYWVDVTVAPNNISCAVISEDKRQVSSPKPQIIYQAPGTRFTFPTLVNFNYCTGILGSQSITSGKHYWEVDVSKKTAWILGVCAGFQPDAMCNIEKNENYQPKYGYWVIGLEEGVKCSAFQDSSFHTPSVPFIVPLSVIICPDRVGVFLDYEACTVSFFNITNHGFLIYKFSHCSFSQPVFPYLNPRKCGVPMTLCSPSS [human TRIM5α, 330-340 = QAPGTRFTFPTLV]”, which enrichment is on record?
A: 0.141 ± 0.074

Q: “MASGILVNVKEEVTCPICLELLTQPLSLDCGHSFCQACLTANHKKSMLDKGESSCPVCRISYQPENIRPNRHVANIVEKLREVKLSPEGQKVDHCARHGEKLLLFCQEDGKVICWLCERSQEHRGHHTFLTEEVAREYQVKLQAALEMLRQKQQEAEELEADIREEKASWKTQIQYDKTNVLADFEQLRDILDWEESNELQNLEKEEEDILKSLTNSETEMVQQTQSLRELISDLEHRLQGSVMELLQGVDGVIKRTENVTLKKPETFPKNQRRVFRAPDLKGMLEVFRELTDVRRYWVDVTVAPNNISCAVISEDKRQVSSPKPQIIYQARGTLYTFPSLTNFNYCTGILGSQSITSGKHYWEVDVSKKTAWILGVCAGFQPDAMCNIEKNENYQPKYGYWVIGLEEGVKCSAFQDSSFHTPSVPFIVPLSVIICPDRVGVFLDYEACTVSFFNITNHGFLIYKFSHCSFSQPVFPYLNPRKCGVPMTLCSPSS [human TRIM5α, 330-340 = QARGTLYTFPSLT]” was tested. Which enrichment did it give?
A: 0.0545 ± 0.075

same assay, conditions: library: insertions and deletions

Q: Which enrichment does the source give for “MASGILVNVKEEVTCPICLELLTQPLSLDCGHSFCQACLTANHKKSMLDKGESSCPVCRISYQPENIRPNRHVANIVEKLREVKLSPEGQKVDHCARHGEKLLLFCQEDGKVICWLCERSQEHRGHHTFLTEEVAREYQVKLQAALEMLRQKQQEAEELEADIREEKASWKTQIQYDKTNVLADFEQLRDILDWEESNELQNLEKEEEDILKSLTNSETEMVQQTQSLRELISDLEHRLQGSVMELLQGVDGVIKRTENVTLKKPETFPKNQRRVFRAPDLKGMLEVFRELTDVRRYWVDVTVAPNNISCAVISEDKRQVSSPKPQIIYGARGTRYQTFVNNFNYCTGILGSQSITSGKHYWEVDVSKKTAWILGVCAGFQPDAMCNIEKNENYQPKYGYWVIGLEEGVKCSAFQDSSFHTPSVPFIVPLSVIICPDRVGVFLDYEACTVSFFNITNHGFLIYKFSHCSFSQPVFPYLNPRKCGVPMTLCSPSS [human TRIM5α, 1-codon duplication at 341]” here?
A: 1.02 ± 0.9

Q: “MASGILVNVKEEVTCPICLELLTQPLSLDCGHSFCQACLTANHKKSMLDKGESSCPVCRISYQPENIRPNRHVANIVEKLREVKLSPEGQKVDHCARHGEKLLLFCQEDGKVICWLCERSQEHRGHHTFLTEEVAREYQVKLQAALEMLRQKQQEAEELEADIREEKASWKTQIQYDKTNVLADFEQLRDILDWEESNELQNLEKEEEDILKSLTNSETEMVQQTQSLRELISDLEHRLQGSVMELLQGVDGVIKRTENVTLKKPETFPKNQRRVFRAPDLKGMLEVFRELTDVRRYWVDVTVAPNNISCAVISEDKRQVSSPKPQIIYGARGTRYQTFVNFNYCTGILGSQSCTGILGSQSITSGKHYWEVDVSKKTAWILGVCAGFQPDAMCNIEKNENYQPKYGYWVIGLEEGVKCSAFQDSSFHTPSVPFIVPLSVIICPDRVGVFLDYEACTVSFFNITNHGFLIYKFSHCSFSQPVFPYLNPRKCGVPMTLCSPSS [human TRIM5α, 9-codon duplication at 345]” was tested. Which enrichment did it give?
A: 0.595 ± 0.43

Q: Which enrichment does the source give for “MASGILVNVKEEVTCPICLELLTQPLSLDCGHSFCQACLTANHKKSMLDKGESSCPVCRISYQPENIRPNRHVANIVEKLREVKLSPEGQKVDHCARHGEKLLLFCQEDGKVICWLCERSQEHRGHHTFLTEEVAREYQVKLQAALEMLRQKQQEAEELEADIREEKASWKTQIQYDKTNVLADFEQLRDILDWEESNELQNLEKEEEDILKSLTNSETEMVQQTQSLRELISDLEHRLQGSVMELLQGVDGVIKRTENVTLKKPETFPKNQRRVFRAPDLKGMLEVFRELTDVRRYWVDVTVAPNNISCAVISEDKRQVSSPKPQIIYGARIIYGARGTRYQTFVNFNYCTGILGSQSITSGKHYWEVDVSKKTAWILGVCAGFQPDAMCNIEKNENYQPKYGYWVIGLEEGVKCSAFQDSSFHTPSVPFIVPLSVIICPDRVGVFLDYEACTVSFFNITNHGFLIYKFSHCSFSQPVFPYLNPRKCGVPMTLCSPSS [human TRIM5α, 6-codon duplication at 327]” here?
A: 0.503 ± 0.54

Q: How did the enrichment turn out when “MASGILVNVKEEVTCPICLELLTQPLSLDCGHSFCQACLTANHKKSMLDKGESSCPVCRISYQPENIRPNRHVANIVEKLREVKLSPEGQKVDHCARHGEKLLLFCQEDGKVICWLCERSQEHRGHHTFLTEEVAREYQVKLQAALEMLRQKQQEAEELEADIREEKASWKTQIQYDKTNVLADFEQLRDILDWEESNELQNLEKEEEDILKSLTNSETEMVQQTQSLRELISDLEHRLQGSVMELLQGVDGVIKRTENVTLKKPETFPKNQRRVFRAPDLKGMLEVFRELTDVRRYWVDVTVAPNNISCAVISEDKRQVSSPKPQYQTFVNFNYCTGILGSQSITSGKHYWEVDVSKKTAWILGVCAGFQPDAMCNIEKNENYQPKYGYWVIGLEEGVKCSAFQDSSFHTPSVPFIVPLSVIICPDRVGVFLDYEACTVSFFNITNHGFLIYKFSHCSFSQPVFPYLNPRKCGVPMTLCSPSS [human TRIM5α, 9-codon deletion at 327]” was run?
A: 1.15 ± 0.43

± gives the standard deviation of the averaged measurements. Restriction of a single-cycle SIVsab GFP reporter by TRIM5α v1-loop variants in CRFK cells. Human variants: read share among cells still uninfected after two challenges over input, higher = gained restriction. Rhesus variants: share among infected cells over input, higher = lost restriction. Reporter dose not given per row. No active / inactive call per row; the paper calls a change when both replicates lie above its controls (mean + 2 SD of stop or wild-type variants, or the top frameshift score). Residues outside the varied loop are taken from Swiss-Prot. The paper reads the human single-substitution scores as noise; they and the rhesus combinations repeat poorly (rank correlation 0.3 to 0.4), indel scores repeat only for the top variants, rhesus substitutions well (0.9).
